Reference: patent publication US11999786B2, “Anti-CD48 antibodies, antibody drug conjugates, and uses thereof” (Novartis AG, priority 2020, dated 2024)

Experiments:
[1] = test system: KMS-27, NCI-H929 and KMS-21-BM cancer cell lines; test: Internalization and cell proliferation assay, statements across the three cancer cell lines; assay type: cell-based; conditions: secondary ADC at 60 nM, 5 days
Description: (§1) The internalization activity of CD48 antibodies were tested against three endogenous cancer cell lines: KMS-27: JCRB No. JCRB1188 cultured in RPMI-1640+10% FBS; NCI-H929: ATCC No. CRL-9068 cultured in RPMI-1640+10% FBS+0.05 mM 2-mercaptoethanol; and KMS-21-BM: JCRB No. JCRB1185 cultured in RPMI-1640+10% FBS.
(§2) CD48 antibodies were synthesized and expressed generally as described in Example 5. Cell lines were cultured in media that is optimal for their growth at 5% CO2, 37° C. in a tissue culture incubator. Prior to seeding for the proliferation assay, the cells were split at least 2 days before the assay to ensure optimal growth density. On the day of seeding, cell viability and cell density were determined using a cell counter (Vi-Cell XR Cell Viability Analyzer, Beckman Coulter). Cells with higher than 85% viability were seeded in white clear bottom 384-well TC treated plates (Corning cat. #3765). […] Plates were incubated at 5% CO2, 37° C. for 5 days in a tissue culture incubator, after which cell viability was assessed through the addition of 25 μL of CellTiter Glo® (Promega, cat #G7573), a reagent which lyses cells and measures total adenosine triphosphate (ATP) content. Plates were incubated at room temperature for 10 minutes to stabilize luminescent signals prior to reading using a luminescence reader (EnVision Multilabel Plate Reader, PerkinElmer). […]

[2] = test system: recombinant cynomolgus CD48 (cyCD48-huFc); test: ELISA binding of purified antibodies to recombinant CD48; conditions: plate coated at 5 μg/mL
Description: (§3) Purified Antibodies tested in ELISA for binding to recombinant human and cynomolgus CD48. Black Maxisorp™ (Nunc) 384 well plates (Thermofischer, 460518) were coated with 20 μl huCD48-huFc, cyCD48-huFc, huCD48-bio, or BSA as control (Sigma, A7906) diluted in PBS at 5 μg/mL overnight at 4° C. The next day, plates were washed three times with 120 μL/well with TBST (TBS-0.05% Tween20). Plates were blocked with 120 μL/well of 5% milk powder/PBS for 3 h at room temperature and washed three times with 120 μL/well with TBST. Antibodies were 1:3 diluted from 100 nM down to 45 μM and 20 μL/well added. After 1 hour incubation at room temperature, plates were washed 3 times with 120 μL/well with TBST. For detection, 20 μl AP conjugated anti-hulgG, Fab fragment specific (Jackson, 109-055-097) in 0.25% milk powder/PBS+0.05% Tween20 at 1:5000 dilution was added per well. After 1 hour incubation at room temperature, plates were washed 3 times with 120 μL/well with TBST. Attophos fluorescence substrate (Roche, 11681982001) was diluted 1:5 in water and 20 μL/well added, incubated for 10 min and the absorbance measured at 405 nm.

[3] = biological target: T1, recombinant human CD48 (huCD48-huFc, huCD48-bio) (Homo sapiens, UniProt P09326); test: as above; conditions: plate coated at 5 μg/mL
T1 sequence (P09326 27-220 limits assumed): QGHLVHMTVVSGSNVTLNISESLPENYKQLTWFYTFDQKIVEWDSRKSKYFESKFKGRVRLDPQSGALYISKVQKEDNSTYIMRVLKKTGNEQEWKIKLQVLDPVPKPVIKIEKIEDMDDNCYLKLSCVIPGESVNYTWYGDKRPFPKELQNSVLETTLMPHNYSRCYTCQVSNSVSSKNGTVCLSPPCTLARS
Description: as §3

[4] = test system: cynomolgus CD48 over expressing HKB11 cells; test: FACS binding of purified antibodies to cell expressed CD48; conditions: antibodies at 100, 10 and 1 μg/ml
Description: (§4) Purified Antibodies tested for binding to cell expressed human and cynomolgus CD48. 5×10^5 human or cynomolgus CD48 over expressing HKB11 cells as well as wild type cells were applied per staining in one well of 96 well plate (Thermo Fischer, Nunclon Delta Surface 163320). Antibodies were applied in 3 concentrations, 100, 10, and, 1 μg/ml. Antibodies were diluted in 50 μl PBS/1% FCS (FACS buffer) per well and incubate for 30 minutes on ice. Wells were washes 2 times with 250 μl FACS buffer by centrifugation at 300 g for 2 minutes and removing the supernatant by flipping the plate and patting on paper. For detection, 50 μl 1:2000 in FACS buffer diluted mouse anti-human Fab, PE-conjugated (Jackson-109-116-097) was added per well and incubate for 30 minutes on ice in the dark. Cells were washes 2 times with 250 μl FACS buffer and suspend in 200 μl FACS buffer per well for FACS analysis. Cells were analyzed on a BD Calibur.

[5] = biological target: T2, human CD48 over expressing HKB11 cells (Homo sapiens, UniProt P09326); test: as above; conditions: antibodies at 100, 10 and 1 μg/ml
T2 construct: expressed in transfected cells
T2 sequence (P09326 27-243): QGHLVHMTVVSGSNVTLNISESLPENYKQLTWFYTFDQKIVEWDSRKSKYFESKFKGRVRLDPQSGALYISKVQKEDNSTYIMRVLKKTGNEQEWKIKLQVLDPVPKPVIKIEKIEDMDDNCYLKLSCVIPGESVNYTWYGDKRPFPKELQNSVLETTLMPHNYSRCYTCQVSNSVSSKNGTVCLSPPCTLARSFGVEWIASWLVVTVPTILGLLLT
Description: as §4

KMS-21-BM = test: Internalization and cell proliferation assay (CellTiter-Glo, with secondary anti-human Fc-VC-MMAE ADC); assay type: cell-based
Description: as §1
as §2, with “#3765). Cells were seeded at a density of 1,000 cells per well in 40 μL of standard growth media. Plates were incubated at 5% CO2, 37° C. overnight in a tissue culture incubator. The next day free MMAE payload, a CD48A-CysMab-VC-MMAE ADC (synthesis described in Example 5), CD48 antibodies, and a non-targeting isotype antibody were prepared at 10× in standard growth media. The MMAE free payload and CD48A-CysMab-VC-MMAE ADC were added to the cells resulting in final concentrations of 0.007-150 nM and a final volume of 50 μL per well. The prepared antibody treatments, including CD48 IgGs and a non-targeting isotype antibody, were then added to the cells resulting in final concentrations of 0.001-20 nM and a final volume of 45 μL per well.” for “#3765).”

KMS-27 = test: as above; assay type: cell-based; conditions: KMS-27, CellTiter-Glo
Description: as §1
as §2, with “#3765). Cells were seeded at a density of 1,000 cells per well in 40 μL of standard growth media. Plates were incubated at 5% CO2, 37° C. overnight in a tissue culture incubator. The next day free MMAE payload, a CD48A-CysMab-VC-MMAE ADC (synthesis described in Example 5), CD48 antibodies, and a non-targeting isotype antibody were prepared at 10× in standard growth media. The MMAE free payload and CD48A-CysMab-VC-MMAE ADC were added to the cells resulting in final concentrations of 0.007-150 nM and a final volume of 50 μL per well. The prepared antibody treatments, including CD48 IgGs and a non-targeting isotype antibody, were then added to the cells resulting in final concentrations of 0.001-20 nM and a final volume of 45 μL per well.” for “#3765).”

NCI-H929 = test: as above; assay type: cell-based
Description: as §1
as §2, with “#3765). Cells were seeded at a density of 1,000 cells per well in 40 μL of standard growth media. Plates were incubated at 5% CO2, 37° C. overnight in a tissue culture incubator. The next day free MMAE payload, a CD48A-CysMab-VC-MMAE ADC (synthesis described in Example 5), CD48 antibodies, and a non-targeting isotype antibody were prepared at 10× in standard growth media. The MMAE free payload and CD48A-CysMab-VC-MMAE ADC were added to the cells resulting in final concentrations of 0.007-150 nM and a final volume of 50 μL per well. The prepared antibody treatments, including CD48 IgGs and a non-targeting isotype antibody, were then added to the cells resulting in final concentrations of 0.001-20 nM and a final volume of 45 μL per well.” for “#3765).”

cyno CD48 = test: KD determination of WT and DAPA IgG by Biacore (Protein A capture), Example 7; assay type: binding; conditions: antigen Cyno CD48, Biacore Protein A capture, Exp# 1 and 2
Description: (§5) Binding to human and cyno CD48 for the WT IgG and DAPA (D265A and […] mutation) variant was assessed for affinity determinations using Biacore. Kinetic rate constants was performed via SPR using the Biacore T200 instrument (Cytiva, formerly GE Healthcare Lifesciences) as described below. The Protein A capture method was utilized in order to determine kinetics for the antibodies. […] The human CD48 and cyno CD48 concentration started at 50 nM and 200 nM respectively, and were serially diluted at one part to one part for nine concentrations. Regeneration was performed at the end of each concentration washing with the Glycine pH1.5 (Cytiva, cat #BR100354). Double reference subtraction was completed to generate the final data. The raw data was fitted to a 1:1 binding model, with parameter(s) Rmax set to local.

human CD48 = biological target: T3, human CD48 (Homo sapiens, UniProt P09326); test: as above; assay type: binding; conditions: antigen Human CD48, Biacore Protein A capture, Exp# 1 and 2
T3 sequence (P09326 27-220): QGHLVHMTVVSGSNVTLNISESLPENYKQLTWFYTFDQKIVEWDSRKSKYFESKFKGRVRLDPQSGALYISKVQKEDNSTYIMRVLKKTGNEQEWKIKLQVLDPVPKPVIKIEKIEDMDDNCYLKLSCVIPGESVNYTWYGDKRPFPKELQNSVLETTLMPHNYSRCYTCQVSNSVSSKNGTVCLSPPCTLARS
Description: as §5

B1: NY938: anti-CD48 antibody, heavy chain SEQ ID NO:65, light chain SEQ ID NO:51; affinity matured from NY258 (antibody)
heavy: QVQLVQSGAEVKKPGASVKVSCKASGYTFTEYTMHWVRQAPGQGLEWMGGINPDTGDTSYNQKFTGRATLTVDKSTSTAYMELSSLRSEDTAVYYCARAQFWTTPRFAYWGQGTLVTVSSASTKGPSVFPLAPSSKSTSGGTAALGCLVKDYFPEPVTVSWNSGALTSGVHTFPAVLQSSGLYSLSSVVTVPSSSLGTQTYICNVNHKPSNTKVDKRV[omitted - human IgG1 Fc]
light: DIQMTQSPSSLSASVGDRVTITCKASQDVGTAVAWYQQKPGKVPKLLIYWASTRHTGVPSRFSGSGSGTDFTLTISSLQPEDVATYYCQQYSTYPITFGQGTKLEIKRTVAAPSVFIFPPSDEQLKSGTASVVCLLNNFYPREAKVQWKVDNALQSGNSQESVTEQDSKDSTYSLSSTLTLSKADYEKHKVYACEVTHQGLSSPVTKSFNRGEC
[1]
  cell killing when dosed in combination with anti-human Fc-VC-MMAE ADC: activity greater than that of CD48A; also recorded: more potent than CD48A
[2]
  binding to recombinant cynomolgus CD48 (ELISA): specific binding
[3]
  binding to recombinant human CD48 (ELISA): specific binding
[4]
  binding to cell expressed cynomolgus CD48 (FACS): specific binding
[5]
  binding to cell expressed human CD48 (FACS): specific binding

B2: CD48A-CysMab-VC-MMAE (conjugate)
heavy: QVQLVQSGSELKKPGASVKVSCKASGYTFTDFGMNWVRQAPGQGLEWMGWINTFTGEPSYGNVFKGRFVFSLDTSVSTAYLQISSLKAEDTAVYYCARRHGNGNVFDSWGQGTLVTVSSATKGPSVFPLAPSSKSTSGGTAALGCLVKDYFPCPVTVSWNSGALTSGVHTFPAVLQSSGLYSLSSVVTVPSSSLGTQTYICNVNHKPSNTKVDKRV[omitted - human IgG1 Fc with S375C (EU numbers)]
light: EIVLTQSPDFQSVTPKEKVTITCRASQSIGSNIHWYQQKPDQSPKLLIKYTSESISGVPSRFSGSGSGTDFTLTINSLEAEDAATYYCQQSNSWPLTFGGGTKVEIKRTVAAPSVFIFPPSDEQLKSGTASVVCLLNNFYPREAKVQWKVDNALQSGNSQESVTEQDSKDSTYSLSSTLTLSKADYEKHKVYACEVTHQGLSSPVTKSFNRGEC
KMS-21-BM
  Span (Amax): 100.4
KMS-27
  Span (Amax): 92.9
NCI-H929
  Span (Amax): 142.4

B3: NY938 DAPA: DAPA (D265A and P329A mutation) variant of NY938 IgG (antibody)
heavy: QVQLVQSGAEVKKPGASVKVSCKASGYTFTEYTMHWVRQAPGQGLEWMGGINPDTGDTSYNQKFTGRATLTVDKSTSTAYMELSSLRSEDTAVYYCARAQFWTTPRFAYWGQGTLVTVSSASTKGPSVFPLAPSSKSTSGGTAALGCLVKDYFPEPVTVSWNSGALTSGVHTFPAVLQSSGLYSLSSVVTVPSSSLGTQTYICNVNHKPSNTKVDKRV[omitted - human IgG1 Fc with D265A P329A (EU numbers)]
light: DIQMTQSPSSLSASVGDRVTITCKASQDVGTAVAWYQQKPGKVPKLLIYWASTRHTGVPSRFSGSGSGTDFTLTISSLQPEDVATYYCQQYSTYPITFGQGTKLEIKRTVAAPSVFIFPPSDEQLKSGTASVVCLLNNFYPREAKVQWKVDNALQSGNSQESVTEQDSKDSTYSLSSTLTLSKADYEKHKVYACEVTHQGLSSPVTKSFNRGEC
Cyno CD48
  ka: 271000 M⁻¹ s⁻¹ and 409000 M⁻¹ s⁻¹
  kd: 0.000289 s⁻¹ and 0.000316 s⁻¹
Human CD48
  ka: 456000 M⁻¹ s⁻¹ and 352000 M⁻¹ s⁻¹
  kd: 0.000115 s⁻¹ and 0.000104 s⁻¹

Values joined by “and” are separate entries in the source; they are usually repeats but may differ in a detail not shown here. Equal entries are not always repeated. “Also recorded” adds a separate entry of the source.
